Reference: PubChem BioAssay (NCATS)
The list shows a part of the results. Further columns of the screen follow, without active or inactive calls. Compounds called inactive in the main read-out are mostly missing here. Words in brackets tell the shape of the fitted curve; partial curves, single points and poor fits give uncertain potencies.

Assay: qHTS Assay for Lipid Storage Modulators (AID 1519)
Details: Drosophila S3 cells, BODIPY lipid droplet/cell ratio, laser cytometry, cells loaded with oleic acid
Summary of the method: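 Cells seeded at 5,000 per well were treated with compounds over a concentration series and loaded with oleic acid (400 uM, as added). Lipid droplet fluorescence (488 nm excitation, 500-530 nm channel) was read by laser-scanning cytometry and normalized to 20 uM Triacsin C.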

[1] = measured here: cell count channel max response
[2] = measured here: lipid (BODIPY) channel AC50
[3] = measured here: lipid channel max response
[4] = measured here: cell number channel AC50
Tags give direction and shape of the fitted curve.

SMILES: COc1ccc(C(=O)N2CCC3(CC2)CCN(c2ncccn2)CC3)cc1
- max response [1]: 10.1%
- AC50 [2]: 0.0224 µM [rising, full curve, poor fit]
- max response [3]: 20.9%

SMILES: c1ccc(CNc2cc(-c3ccoc3)ncn2)cc1
- max response [1]: 28%
- AC50 [2]: 11.2 µM [rising, partial curve, poor fit]
- max response [3]: 36.2%

SMILES: NC(Cc1cc(I)c(Oc2cc(I)c(O)c(I)c2)c(I)c1)C(=O)O (stereo unspecified)
- max response [1]: 11.7%
- AC50 [2]: 14.1 µM [rising, partial curve]
- max response [3]: 33.1%

SMILES: COc1cccc(Nc2ncc3ncc(=O)n(CCC#N)c3n2)c1
- max response [1]: 7.06%
- AC50 [2]: 0.0794 µM [rising, full curve, poor fit]
- max response [3]: 14.3%

SMILES: Oc1ccc([C@@H]2CNCCc3c2cc(O)c(O)c3Cl)cc1
- max response [1]: 27.8%
- AC50 [2]: 7.94 µM [rising, full curve, poor fit]
- max response [3]: 55.7%

SMILES: COc1cccc(Nc2ncc3nc(-c4ccc(F)cc4)c(=O)n(C[C@H]4CCCO4)c3n2)c1
- max response [1]: -10.2%
- AC50 [2]: 15.8 µM [falling, single point]
- max response [3]: -55.5%

SMILES: O=C(c1csnn1)N1CCC2(CCN(Cc3nccs3)CC2)CC1
- max response [1]: 28.4%
- AC50 [2]: 0.0398 µM [rising, full curve, poor fit]
- max response [3]: 34.3%

SMILES: COc1ccc(-c2nc3cnc(OC)nc3n(-c3ccccc3)c2=O)cc1
- max response [1]: 46.6%
- AC50 [4]: 25.1 µM [rising, single point]
- max response [3]: 4.02%

SMILES: CC(C)NCC(O)COc1ccc(CC(N)=O)cc1 (stereo unspecified)
- max response [1]: 17.9%
- AC50 [2]: 28.2 µM [rising, partial curve, poor fit]
- max response [3]: 33.1%

SMILES: COc1ncc2nc(-c3ccc(F)cc3)c(=O)n(CCc3ccccc3)c2n1
- max response [1]: 20.1%
- AC50 [2]: 0.0501 µM [rising, full curve]
- max response [3]: 32.6%

SMILES: COc1cccc(Nc2ncc3nc(-c4ccccc4)c(=O)n(C[C@H]4CCCO4)c3n2)c1
- max response [1]: -8%
- AC50 [2]: 20 µM [falling, single point]
- max response [3]: -47.2%

SMILES: CN(C)C(=O)c1ccc(-c2nc(Nc3ccncc3)c3ccccc3n2)cc1
- max response [1]: -5.56%
- AC50 [2]: 1.78 µM [rising, partial curve, poor fit]
- max response [3]: -14.1%

SMILES: Cn1c(=O)c(-c2ccc(Cl)cc2)nc2cncnc21
- max response [1]: 19.6%
- AC50 [4]: 4.47 µM [rising, partial curve]
- max response [3]: 27.8%

SMILES: COc1ccc(NC(=O)N2CCC3(CC2)CCN(C(=O)c2cccc(F)c2)CC3)cc1
- max response [1]: 26.7%
- AC50 [2]: 0.0398 µM [rising, full curve, poor fit]
- max response [3]: 37%

SMILES: O=c1c(-c2ccccc2)nc2cnc(Oc3ccccc3)nc2n1C[C@H]1CCCO1
- max response [1]: -0.717%
- AC50 [2]: 28.2 µM [falling, single point]
- max response [3]: -31.6%

SMILES: COc1ccc(C(=O)N2CCC3(CCCN(C(=O)NC(C)C)C3)CC2)cc1
- max response [1]: 23.7%
- AC50 [2]: 0.0316 µM [rising, full curve, poor fit]
- max response [3]: 33%

SMILES: C[C@@H]1C[C@H]2[C@H]3C[C@@H](F)C4=CC(=O)C=C[C@]4(C)[C@@]3(Cl)[C@@H](O)C[C@@]2(C)[C@@H]1C(=O)COC(=O)C(C)(C)C
- max response [1]: -17.4%
- AC50 [2]: 22.4 µM [falling, single point]
- max response [3]: -30.9%

SMILES: O=C(Nc1ccccc1)N1CCC2(CC1)CCN(C(=O)c1ccco1)CC2
- max response [1]: 18.8%
- AC50 [2]: 1.41 µM [rising, full curve, poor fit]
- max response [3]: 30.1%

SMILES: COCCn1c(=O)c(-c2ccc(F)c(F)c2)nc2cncnc21
- max response [1]: 10.8%
- AC50 [2]: 3.98 µM [rising, partial curve, poor fit]
- max response [3]: 17.2%

SMILES: COc1ccc(Oc2ncc3ncc(=O)n(-c4ccc(OC)cc4)c3n2)cc1
- max response [1]: 18.9%
- AC50 [2]: 3.16 µM [rising, full curve, poor fit]
- max response [3]: 23%

SMILES: O=C(c1csnn1)N1CCC2(CC1)CN(c1cccc(-c3ccccc3)c1)C2
- max response [1]: -9.66%
- AC50 [2]: 0.141 µM [rising, partial curve, poor fit]
- max response [3]: -7.67%

SMILES: CC(=O)OCC1OC(Oc2cc(OC(C)=O)c3c(=O)cc(-c4ccc(OC(C)=O)c(OC(C)=O)c4)oc3c2)C(OC(C)=O)C(OC(C)=O)C1OC(C)=O (stereo unspecified)
- max response [1]: 25.1%
- AC50 [2]: 39.8 µM [falling, single point]
- max response [3]: -47.7%

SMILES: Cc1cc(C)cc(OCC2CNC(=O)O2)c1 (stereo unspecified)
- max response [1]: 13.3%
- AC50 [2]: 39.8 µM [rising, single point]
- max response [3]: 30.8%

SMILES: CC(C)=CCc1c(O)cc(O)c2c1O[C@H](c1ccccc1)CC2=O
- max response [1]: 50.7%
- AC50 [2]: 35.5 µM [rising, single point]
- max response [3]: 90.7%

SMILES: COCCNc1nc(-c2c(C)noc2C)nc2ccccc12
- max response [1]: 33.9%
- AC50 [2]: 31.6 µM [rising, partial curve, poor fit]
- max response [3]: 43.9%

SMILES: Cc1nc2cnc(Nc3ccccc3)nc2n(Cc2cccs2)c1=O
- max response [1]: -1.31%
- AC50 [2]: 0.00794 µM [rising, full curve, poor fit]
- max response [3]: -1.57%

SMILES: COc1ccccc1-c1ccc2ncnc(N3CCN(C)CC3)c2c1
- max response [1]: -20.2%
- AC50 [2]: 39.8 µM [falling, single point]
- max response [3]: -54.8%

SMILES: CN1CCN(c2ncc3nc(CCc4ccccc4)c(=O)n(Cc4cccs4)c3n2)CC1
- max response [1]: 10.9%
- AC50 [2]: 0.0251 µM [rising, full curve, poor fit]
- max response [3]: 15.2%

SMILES: COC(=O)N1CCC2(CCCN(c3cccc(-c4ccccc4)c3)C2)CC1
- max response [1]: 1.17%
- AC50 [2]: 39.8 µM [falling, single point]
- max response [3]: -93.3%

SMILES: COc1ccc(-n2c(=O)cnc3cnc(N4CCNCC4)nc32)cc1
- max response [1]: 17.7%
- AC50 [2]: 3.98 µM [rising, full curve, poor fit]
- max response [3]: 30.6%

SMILES: O=C(O)/C=C/C=C/c1ccccc1
- max response [1]: 27.9%
- AC50 [2]: 17.8 µM [rising, partial curve]
- max response [3]: 42.2%

SMILES: Cc1cccc(CNc2ncncc2-c2ccc(C(=O)N(C)C)cc2)c1
- max response [1]: 7.25%
- AC50 [2]: 1 µM [rising, full curve, poor fit]
- max response [3]: 14.2%

SMILES: COc1ccccc1-c1ccc2ncnc(N3CCOCC3)c2c1
- max response [1]: -3.16%
- AC50 [2]: 1 µM [rising, full curve, poor fit]
- max response [3]: 9.01%

SMILES: COc1ncc2nc(-c3cc(F)cc(F)c3)c(=O)n(C3CC3)c2n1
- max response [1]: 20.4%
- AC50 [2]: 0.0316 µM [rising, full curve, poor fit]
- max response [3]: 28.2%

SMILES: COc1ccccc1-c1ccc2ncnc(NCc3cccnc3)c2c1
- max response [1]: -20.1%
- AC50 [2]: 39.8 µM [falling, single point]
- max response [3]: -30.6%

SMILES: O=c1c(CCc2ccccc2)nc2cncnc2n1-c1ccccc1
- max response [1]: 10.6%
- AC50 [2]: 0.0501 µM [rising, full curve, poor fit]
- max response [3]: 20.9%

SMILES: CN(C)c1ccc(-c2ccc3ncnc(N(C)Cc4ccco4)c3c2)cc1
- max response [1]: 11.1%
- AC50 [2]: 0.708 µM [rising, full curve]
- max response [3]: 20.6%

SMILES: CN(C)C(=O)c1ccc(-c2ccc3ncnc(NCc4ccccc4)c3c2)cc1
- max response [1]: 19.6%
- AC50 [2]: 2.82 µM [rising, full curve, poor fit]
- max response [3]: 22.8%

SMILES: Cn1cccc1C(=O)N1CCC2(CC1)CCN(c1cccc(-c3ccccc3)c1)CC2
- max response [1]: -1.69%
- AC50 [2]: 17.8 µM [falling, single point]
- max response [3]: -32.5%

SMILES: O=C(c1cnccn1)N1CCC2(CC1)CCN(c1ccccc1)CC2
- max response [1]: 6.8%
- AC50 [2]: 0.141 µM [rising, full curve, poor fit]
- max response [3]: 11.9%

SMILES: COc1cccc(Nc2ncc3ncc(=O)n(C4CC4)c3n2)c1
- max response [1]: 12.8%
- AC50 [4]: 0.251 µM [rising, partial curve, poor fit]
- max response [3]: 15%

SMILES: COCCNc1ncnc2ccc(-c3ccccc3OC)cc12
- max response [1]: -11.9%
- AC50 [2]: 1.58 µM [rising, partial curve, poor fit]
- max response [3]: -24.9%

SMILES: COc1cccc(-c2cncnc2NCc2cnc(C)cn2)c1
- max response [1]: 23.9%
- AC50 [2]: 2 µM [rising, full curve, poor fit]
- max response [3]: 29.4%

SMILES: Cn1c(=O)c2c(ncn2CC(O)CO)n(C)c1=O (stereo unspecified)
- max response [1]: 21.2%
- AC50 [2]: 35.5 µM [rising, single point]
- max response [3]: 34.1%

SMILES: N#CCCn1c(=O)c(-c2cccs2)nc2cnc(N3CCOCC3)nc21
- max response [1]: 5.12%
- AC50 [2]: 1.58 µM [rising, partial curve]
- max response [3]: -5.89%

SMILES: O=C(c1cnccn1)N1CCC2(CC1)CN(c1ccccc1)C2
- max response [1]: 10.4%
- AC50 [4]: 0.282 µM [rising, full curve, poor fit]
- max response [3]: 17.1%

SMILES: Nc1nc(=O)n(C2OC(CO)C(O)C2O)cc1Cl (stereo unspecified)
- max response [1]: 5.39%
- AC50 [2]: 12.6 µM [rising, partial curve]
- max response [3]: 37.2%

SMILES: COc1ccc(Oc2ncc3nc(-c4cccs4)c(=O)n(Cc4cccc(OC)c4)c3n2)cc1
- AC50 [4]: 1 µM [rising, full curve]

SMILES: O=C(O)c1cc2cc(Cc3cccnc3)ccc2o1
- AC50 [4]: 7.08 µM [falling, partial curve, poor fit]

SMILES: CN(C)c1ncc2nc(-c3cccs3)c(=O)n(Cc3cccs3)c2n1
- max response [1]: 22%
- AC50 [4]: 0.562 µM [rising, full curve, poor fit]
- max response [3]: 18.6%

SMILES: COc1cc(N)c(Cl)cc1C(=O)OCCN1CCCCC1
- max response [1]: 46.9%
- AC50 [2]: 44.7 µM [rising, single point]
- max response [3]: 47.9%

SMILES: OC1C=C2CCN3Cc4cc5c(cc4C(C1O)C23)OCO5 (stereo unspecified)
- max response [1]: 16.3%
- AC50 [2]: 17.8 µM [rising, single point]
- max response [3]: 36%

SMILES: O=C(c1ccco1)N1CCC[C@@]2(CCN(c3ccncc3)C2)C1
- max response [1]: 23.4%
- AC50 [2]: 0.0398 µM [rising, full curve]
- max response [3]: 31.2%

SMILES: OCC(O)C(O)C(O)C(O)C(O)CO (stereo unspecified)
- max response [1]: 27.5%
- AC50 [2]: 39.8 µM [rising, single point]
- max response [3]: 39.2%

SMILES: Cn1c(=O)c(-c2ccccc2)nc2cnc(Nc3ccccc3)nc21
- max response [1]: 12.7%
- AC50 [2]: 0.631 µM [rising, full curve, poor fit]
- max response [3]: 3.14%
